In all, about 310,000 compounds went through this assay and about 14,000 (4.5%) showed an effect of 50% or more. The effect is printed as a negative number. Some of the results follow.
target: human ether-à-go-go-related gene (hERG) potassium channel (human, UniProt Q12809); experiment: primary screen, population patch clamp on CHO cells stably expressing hERG
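Further: peak tail current of the secondary pulse compared with the same well before compound.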

human ether-à-go-go-related gene (hERG) potassium channel, sequence (Q12809 whole entry, looked up): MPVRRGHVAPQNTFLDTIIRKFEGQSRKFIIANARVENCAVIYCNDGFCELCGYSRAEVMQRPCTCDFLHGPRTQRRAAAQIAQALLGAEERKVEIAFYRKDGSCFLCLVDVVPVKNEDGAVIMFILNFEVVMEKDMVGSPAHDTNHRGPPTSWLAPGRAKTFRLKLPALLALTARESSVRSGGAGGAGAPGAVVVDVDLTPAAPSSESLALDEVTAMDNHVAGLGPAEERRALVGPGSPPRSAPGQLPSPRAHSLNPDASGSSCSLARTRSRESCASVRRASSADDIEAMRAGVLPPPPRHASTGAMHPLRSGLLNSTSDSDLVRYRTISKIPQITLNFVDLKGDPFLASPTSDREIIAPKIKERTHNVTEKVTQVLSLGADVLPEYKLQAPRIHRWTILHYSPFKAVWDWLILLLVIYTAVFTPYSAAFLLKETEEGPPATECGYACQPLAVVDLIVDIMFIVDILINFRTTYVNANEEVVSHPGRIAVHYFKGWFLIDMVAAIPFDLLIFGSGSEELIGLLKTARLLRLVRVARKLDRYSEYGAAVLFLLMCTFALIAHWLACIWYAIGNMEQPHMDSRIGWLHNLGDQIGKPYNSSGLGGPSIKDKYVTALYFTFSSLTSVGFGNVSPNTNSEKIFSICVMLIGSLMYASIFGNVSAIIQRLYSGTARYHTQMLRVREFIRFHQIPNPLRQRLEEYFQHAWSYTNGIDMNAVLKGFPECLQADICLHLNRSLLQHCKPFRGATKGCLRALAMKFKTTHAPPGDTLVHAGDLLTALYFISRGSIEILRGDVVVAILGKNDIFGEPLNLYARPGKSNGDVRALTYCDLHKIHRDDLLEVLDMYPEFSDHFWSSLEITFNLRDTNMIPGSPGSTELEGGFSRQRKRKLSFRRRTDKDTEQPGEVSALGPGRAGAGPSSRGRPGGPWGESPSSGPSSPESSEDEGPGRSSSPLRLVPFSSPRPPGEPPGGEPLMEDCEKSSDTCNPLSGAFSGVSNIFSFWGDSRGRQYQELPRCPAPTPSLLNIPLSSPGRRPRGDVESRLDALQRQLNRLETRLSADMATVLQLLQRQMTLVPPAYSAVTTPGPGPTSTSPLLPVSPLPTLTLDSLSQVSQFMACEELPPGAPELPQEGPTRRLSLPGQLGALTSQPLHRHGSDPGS

Row | Structure (SMILES) | hERG current change (%, negative = inhibition) at 10uM [%]
1 | Cc1ccc(S(=O)(=O)N2CCCOC2)cc1 | -3.68
2 | COc1ccc(OC)c(-n2cnnn2)c1 | -3.68
3 | COc1cccc(C(=O)NC(=S)Nc2ccc(Cl)cc2C(=O)O)c1 | 9.65
4 | O=C(Cn1cc(C(F)(F)F)cc(Cl)c1=O)NCCc1ccccc1 | -23.8
5 | C=CCn1c(SCC(=O)N2CCOCC2)nnc1C(C)NC(=O)c1ccccc1 (centres unmarked) | 13.4
6 | CN(/N=C/C=C/c1ccccc1)c1cc(=O)n(C)c(=O)[nH]1 | -12.8
7 | Cc1ccc(S(=O)(=O)NC(=O)c2cccn2C)cc1 | 14.7
8 | CCCn1c(=O)c(C(=O)Nc2ccccc2C(=O)OCC)c(O)c2ccccc21 | 8.41
9 | O=C(COC(=O)c1cc(S(=O)(=O)N2CCc3ccccc3C2)ccc1Cl)NCc1ccco1 | -20.2
10 | COc1ccc(CCN=C(N)NS(=O)(=O)c2cc(F)ccc2F)cc1 | -17.2
11 | Cc1cc(N2CCCCC2)nc(N)n1 | 27.4
12 | O=C(c1cn(-c2ccccc2)nc1-c1cccs1)N1CCN(c2ccccn2)CC1 | -7.92
13 | C=COCCn1c(=N)n(CCC)c2ccccc21.Cl | -28.3
14 | CCOC(=O)CSc1nc2c(sc3ccc([N+](=O)[O-])cc32)c(=O)n1Cc1ccco1 | -32.4
15 | N#Cc1ccccc1CSCCNC(=O)Cc1c(F)cccc1Cl | 15.8
16 | CCOc1ccc(S(=O)(=O)Nc2ccc(C(=O)N/N=C/c3c(C)nn(-c4ccccc4)c3N3CCCC3)cc2)cc1 | 4.05
17 | Cc1ccc(NC(=O)Cn2c(=O)c3cccn3c3ccccc32)c(Cl)c1 | 7.07
18 | Cc1ccc(C)c(OC(=O)c2cccnc2)c1 | 6.95
19 | CCc1cc(=O)oc2c3c(cc(OCC(=O)NCc4ccccn4)c12)OC(C)(C)CC3 | -14.9

Row | Structure (SMILES) | hERG current change (%, negative = inhibition) at 10uM [%]
20 | COC(=O)C1CCN(Cc2cc(=O)oc3cc(OC)ccc23)CC1 | -17.8
21 | Cc1ccc2nsnc2c1NC(=O)c1ccc([N+](=O)[O-])o1 | 13.1
22 | COC(=O)c1cc(C)sc1NC(=S)N1CCN(CCc2ccccc2)CC1 | 29.5
23 | Cc1cccc(C(=O)NCC(=O)NCCCSc2ccccc2)c1 | -9.36
24 | COc1cccc(-c2nc(CCl)cs2)c1OC.Cl | 5.27
25 | CCOc1cc(C2CC(=O)c3c(ccc4ccccc34)N2)ccc1O (centres unmarked) | -3.76
26 | Cc1ccc(NC(=O)C2C3C=CC4(O3)C2C(=O)N(CCN2CCOCC2)C4C(=O)NC2CCCCC2)cc1C (centres unmarked) | 18.5
27 | COc1cc(/C=N/n2nnnc2N)ccc1OCc1c(C)no[n+]1[O-] | 9.97
28 | C=CCN(CC(=O)c1sc(C(=O)OCC)nc1C)c1cccc(Br)c1 | -1.13
29 | O=C(O)C(Cc1cc2ccccc2[nH]1)N1C(=O)C2CC=C(Cl)CC2C1=O (centres unmarked) | -4.84
30 | O=C1c2ccc(-c3nc4ccccc4o3)cc2C(=O)N1Cc1cccnc1 | -0.0291
31 | CCCc1nc(SCC(=O)Nc2nnc(CC)s2)c2c(C)c(C)sc2n1 | 17.8
32 | COc1cc(OC)cc(-n2nc(C(=O)NCCCN3CCOCC3)c3ccccc3c2=O)c1 | -24.4
33 | CCS(=O)(=O)c1nc(S(=O)(=O)c2ccc(Cl)cc2)c(N2CCN(CCO)CC2)s1 | -35.2
34 | O=C(O)C(=O)O.O=C(c1ccco1)N1CCN(S(=O)(=O)c2ccc([N+](=O)[O-])cc2)CC1 | -39.8
35 | Cc1occc1C(=O)n1cnc2ccccc21 | 12.9
36 | COC(C(=O)NC1CCCCCCC1)c1ccccc1 (centres unmarked) | -6.3
37 | CC(C)Oc1ccc(/C=C(\C#N)C(=O)NC2CC2)cc1 | 10.1
38 | O=S(=O)(c1cccc(-c2cn3ccccc3n2)c1)N1CCCCC1 | -31.9

Row | Structure (SMILES) | hERG current change (%, negative = inhibition) at 10uM [%]
39 | Cn1nnnc1SCC(=O)Nc1cc(S(=O)(=O)N2CCCC2)ccc1Cl | 5.41
40 | CCOC(=O)[C@H]1CCC[C@@H](NS(=O)(=O)c2ccc(NC(C)=O)cc2)C1 | 14.1
41 | COc1ccc(-n2c3c(cc(C(=O)NCc4ccco4)c2=O)C(=O)CC(C)(C)C3)cc1 | -56.6
42 | Cc1ncc(CO)c2c1Oc1nc(-c3ccccc3)nc(SCC(=O)Nc3cccc(O)c3)c1C2 | -37.4
43 | CC(C)(C)[C@H]1C=C(C(N)=O)O[C@@H](OCc2ccc(CO)cc2)C1 | -2.17
44 | CCc1ccccc1NC(=S)N(CCc1ccncc1)C(C)C | -29.6
45 | Nc1nc(=S)n(-c2ccccc2)[nH]1 | 18.7
46 | O=C(NCc1ccccn1)C(=O)NCC1OCCN1S(=O)(=O)c1ccc(F)cc1 (centres unmarked) | 11.7
47 | C=CCNC(=S)NN=C1CCC(c2ccccc2)CC1 (centres unmarked) | 3.31
48 | CS(=O)(=O)Nc1cccc2cccnc12 | 10.5
49 | Cc1ccc(CNC(=O)c2nn(C)c(C)c2[N+](=O)[O-])cc1 | -2.23
50 | Cc1sc(NC(=O)C2C3CCC(O3)C2C(=O)O)nc1-c1ccc(CC(C)C)cc1 (centres unmarked) | -1.32
51 | COc1ccc(C2c3c(ccc4ccccc34)Oc3ncn4nc(-c5ccco5)nc4c32)cc1 (centres unmarked) | -12.4
52 | COc1ccc(Cn2nnnc2CN2CCOCC2)cc1 | -6.11
53 | CCN(CC)c1ccc(/C=N/NC(=O)CNC(=O)c2ccc3c(c2)OCCO3)cc1 | -5.14
54 | COc1ccc(C(=O)CCC(=O)N2CCN(c3ccc([N+](=O)[O-])cc3)CC2)cc1 | -63.8
55 | CC1CCCCN1C(=O)CN1CCN(S(=O)(=O)c2ccc(Br)cc2Cl)CC1 (centres unmarked) | -41.6
56 | COc1ccc(CN2CCNC(=O)C2CC(=O)N(C)Cc2ccon2)c(OC)c1 (centres unmarked) | 14.6
